This is one part of the list. Rule as the data show it: active = 3.2 or more and inactive = the rest. The signal is at background level for most entries.
How the values were obtained:
Assay in all cases: enrichment score (SH2-bound / input frequency) (ratio); bacterial display of known human phosphotyrosine sites (pTyr-Var adds point mutants) read by sequencing; higher = stronger binding; tyrosines were phosphorylated by kinases first
Details in all cases: peptide library: pTyr-Var
SHP2 C-SH2 domain E139D = biological target: SHP2 C-SH2 domain E139D
[1] = biological target: SHP2 C-SH2 domain wild-type
SHP2 N-SH2 domain L43F = biological target: SHP2 N-SH2 domain L43F
SHP2 N-SH2 domain T42A = biological target: SHP2 N-SH2 domain T42A
SHP2 N-SH2 domain T52S = biological target: SHP2 N-SH2 domain T52S
[2] = biological target: SHP2 N-SH2 domain wild-type

Measured: enrichment score
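Also: displayed peptides selected on beads carrying the immobilized SH2 domain, with library peptides lacking any tyrosine serving as negative controls.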

B1: YIPF7_Y59_A54T_YF (peptide)
chain: TFGNLYGSRKQ
inactive: SHP2 C-SH2 domain E139D 0.555 | [1] 0.321 | SHP2 N-SH2 domain L43F 0.405 | SHP2 N-SH2 domain T42A 0.438 | SHP2 N-SH2 domain T52S 0.349 | [2] 1.16

B2: YWHAG_Y131_D129E_YF (peptide)
chain: MKGEFYRFLAE
inactive: SHP2 C-SH2 domain E139D 0.817 | [1] 0.713 | SHP2 N-SH2 domain L43F 0.8 | SHP2 N-SH2 domain T42A 0.57 | SHP2 N-SH2 domain T52S 0.542 | [2] 0.986

B3: YWHAG_Y130_Y133S_YF (peptide)
chain: KMKGDYFRSLA
inactive: SHP2 C-SH2 domain E139D 0.674 | [1] 0.778 | SHP2 N-SH2 domain L43F 0.664 | SHP2 N-SH2 domain T42A 0.703 | SHP2 N-SH2 domain T52S 0.718 | [2] 0.579

B4: XPC_Y676 (peptide)
chain: RGEAVYSRDCV
inactive: SHP2 C-SH2 domain E139D 0.691 | [1] 0.682 | SHP2 N-SH2 domain L43F 0.477 | SHP2 N-SH2 domain T42A 0.54 | SHP2 N-SH2 domain T52S 0.467 | [2] 0.699

B5: XRCC1_Y515_P514L (peptide)
chain: NGEDLYAGSTD
inactive: SHP2 C-SH2 domain E139D 0.393 | [1] 0.399 | SHP2 N-SH2 domain L43F 0.429 | SHP2 N-SH2 domain T42A 0.438 | SHP2 N-SH2 domain T52S 0.544 | [2] 0.472

B6: YES1_Y159_W158L (peptide)
chain: QAEELYFGKMG
inactive: SHP2 C-SH2 domain E139D 0.97 | [1] 1.08 | SHP2 N-SH2 domain L43F 1.1 | SHP2 N-SH2 domain T42A 0.799 | SHP2 N-SH2 domain T52S 1.3 | [2] 1.11

B7: XPNPEP3_Y455_G453C (peptide)
chain: IEPCIYIPEDD
inactive: SHP2 C-SH2 domain E139D 0.784 | [1] 1 | SHP2 N-SH2 domain L43F 0.757 | SHP2 N-SH2 domain T42A 0.762 | SHP2 N-SH2 domain T52S 0.867 | [2] 0.843

B8: YES1_Y194 (peptide)
chain: TTKGAYSLSIR
inactive: SHP2 C-SH2 domain E139D 0.694 | [1] 0.602 | SHP2 N-SH2 domain L43F 0.705 | SHP2 N-SH2 domain T42A 0.565 | SHP2 N-SH2 domain T52S 0.992 | [2] 0.597

B9: YWHAG_Y131 (peptide)
chain: MKGDYYRYLAE
inactive: SHP2 C-SH2 domain E139D 0.688 | [1] 0.574 | SHP2 N-SH2 domain L43F 0.537 | SHP2 N-SH2 domain T42A 0.429 | SHP2 N-SH2 domain T52S 0.45 | [2] 0.605

B10: XRCC5_Y416 (peptide)
chain: HIKHNYECLVY
inactive: SHP2 C-SH2 domain E139D 1.49 | [1] 1.49 | SHP2 N-SH2 domain L43F 1.55 | SHP2 N-SH2 domain T42A 1.07 | SHP2 N-SH2 domain T52S 1.1 | [2] 1.41

B11: XPA_Y257_M256V (peptide)
chain: LEDDVYRKTCT
inactive: SHP2 C-SH2 domain E139D 0.722 | [1] 0.838 | SHP2 N-SH2 domain L43F 0.746 | SHP2 N-SH2 domain T42A 0.586 | SHP2 N-SH2 domain T52S 0.725 | [2] 0.772

B12: WWOX_Y293 (peptide)
chain: WAMLAYNRSKL
inactive: SHP2 C-SH2 domain E139D 1.01 | [1] 0.771 | SHP2 N-SH2 domain L43F 0.838 | SHP2 N-SH2 domain T42A 0.901 | SHP2 N-SH2 domain T52S 0.902 | [2] 0.935

B13: XRCC5_Y416_YF (peptide)
chain: HIKHNYECLVF
inactive: SHP2 C-SH2 domain E139D 1.89 | [1] 2.47 | SHP2 N-SH2 domain L43F 1.69 | SHP2 N-SH2 domain T42A 2.36 | SHP2 N-SH2 domain T52S 2 | [2] 2.02

B14: XRCC5_Y416_I412V_YF (peptide)
chain: HVKHNYECLVF
inactive: SHP2 C-SH2 domain E139D 2.28 | [1] 2.03 | SHP2 N-SH2 domain L43F 1.89 | SHP2 N-SH2 domain T42A 2.77 | SHP2 N-SH2 domain T52S 1.71 | [2] 2.63

B15: XPA_Y257_L252V (peptide)
chain: VEDDMYRKTCT
inactive: SHP2 C-SH2 domain E139D 0.861 | [1] 0.881 | SHP2 N-SH2 domain L43F 0.735 | SHP2 N-SH2 domain T42A 0.774 | SHP2 N-SH2 domain T52S 0.709 | [2] 1.24

B16: YWHAG_Y130_YF (peptide)
chain: KMKGDYFRFLA
inactive: SHP2 C-SH2 domain E139D 2.12 | [1] 1.98 | SHP2 N-SH2 domain L43F 2.29 | SHP2 N-SH2 domain T42A 2.22 | SHP2 N-SH2 domain T52S 2.11 | [2] 1.89

B17: WWOX_Y287_L291P (peptide)
chain: PTKNDYWAMPA
inactive: SHP2 C-SH2 domain E139D 0.848 | [1] 0.63 | SHP2 N-SH2 domain L43F 0.65 | SHP2 N-SH2 domain T42A 0.674 | SHP2 N-SH2 domain T52S 0.539 | [2] 0.602

B18: YWHAG_Y131_Y133S_YF (peptide)
chain: MKGDFYRSLAE
inactive: SHP2 C-SH2 domain E139D 0.564 | [1] 0.604 | SHP2 N-SH2 domain L43F 0.535 | SHP2 N-SH2 domain T42A 0.583 | SHP2 N-SH2 domain T52S 0.592 | [2] 0.678

B19: YWHAG_Y130_D129E (peptide)
chain: KMKGEYYRYLA
inactive: SHP2 C-SH2 domain E139D 2.74 | [1] 2.53 | SHP2 N-SH2 domain L43F 2.62 | SHP2 N-SH2 domain T42A 1.96 | SHP2 N-SH2 domain T52S 2.41 | [2] 2.17

— the supplement of paper PMC10369915
